Experimental data: the supplement of paper PMC9151546
Structures can show the parent of a compound that is named as a salt. Most values come without repeats; read them as rough.

Assays:
[1] = tested on: CHO-K1; assay: micronucleus frequency (% of nucleated events); higher = more micronuclei (genotoxic)
[2] = tested on: CHO-K1; assay: hypodiploid nuclei frequency (% of nucleated events); higher = more hypodiploid events (aneugenic)
Method: (§1)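 Flow-cytometric in vitro micronucleus assay (Litron MicroFlow) in CHO-K1 cells in 96-well plates, 19 concentrations (4.5-200 µM, n=1 per concentration). Without S9, cells were exposed for 24 h and sampled at 48 h. With Aroclor 1254-induced rat liver S9, cells were exposed for 3-4 h and sampled at 27-28 h. Read-outs are %MN and %hypodiploid nuclei relative to nucleated events, and relative survival as the nuclei-to-bead ratio versus the 1% DMSO vehicle control (x100).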

[3] = tested on: CHO-K1; assay: relative survival (nuclei to bead ratio vs DMSO control) (% of vehicle control); higher = more surviving cells
Method: as §1
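Throughout, for hypodiploid nuclei frequency (% of nucleated events): hypodiploid nuclei gated on a flow cytometer with 488 nm excitation after SYTOX Green staining, cultures at 37 °C, positive controls vinblastine without S9 and cyclophosphamide with S9.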
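Throughout, for micronucleus frequency (% of nucleated events): cells lysed with nuclei stained by SYTOX Green, then micronucleus-gated events counted against nucleated events by flow cytometry with 488 nm excitation.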
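Throughout, for relative survival (nuclei to bead ratio vs DMSO control): Lysed-cell nuclei stained with SYTOX Green and counted against counting beads by flow cytometry at 488 nm excitation, with vinblastine (no S9) and cyclophosphamide (plus S9) as positive controls.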

CCc1ccc(CCOc2ccc(CC3SC(=O)NC3=O)cc2)nc1 (stereo unspecified) [Pioglitazone hydrochloride]
Conditions | hypodiploid nuclei frequency, [2] [%] | micronucleus frequency, [1] [%] | relative survival, [3]
concentration: 4.5 (µM), S9 metabolic activation: with S9, exposure time: 3-4 hours | 0.26 | 1.12 | 76.5
concentration: 4.5 (µM), S9 metabolic activation: without S9, exposure time: 24 hours | 0.54 | 2.42 | 112
concentration: 5.63 (µM), S9 metabolic activation: with S9, exposure time: 3-4 hours | 0.32 | 1.94 | 90.5
concentration: 5.63 (µM), S9 metabolic activation: without S9, exposure time: 24 hours | 0.6 | 2.16 | 103
concentration: 7.04 (µM), S9 metabolic activation: with S9, exposure time: 3-4 hours | 0.24 | 1.36 | 91.9
concentration: 7.04 (µM), S9 metabolic activation: without S9, exposure time: 24 hours | 0.66 | 2.14 | 107
concentration: 8.8 (µM), S9 metabolic activation: with S9, exposure time: 3-4 hours | 0.4 | 1.46 | 82.9
concentration: 8.8 (µM), S9 metabolic activation: without S9, exposure time: 24 hours | 1.12 | 2.28 | 102
concentration: 11 (µM), S9 metabolic activation: with S9, exposure time: 3-4 hours | 0.24 | 1.42 | 94.5
concentration: 11 (µM), S9 metabolic activation: without S9, exposure time: 24 hours | 1.1 | 2.28 | 121
concentration: 13.7 (µM), S9 metabolic activation: with S9, exposure time: 3-4 hours | 0.24 | 1.32 | 106
concentration: 13.7 (µM), S9 metabolic activation: without S9, exposure time: 24 hours | 0.76 | 1.72 | 104
concentration: 17.2 (µM), S9 metabolic activation: with S9, exposure time: 3-4 hours | 0.24 | 1.7 | 118
concentration: 17.2 (µM), S9 metabolic activation: without S9, exposure time: 24 hours | 1.1 | 1.58 | 120
concentration: 21.5 (µM), S9 metabolic activation: with S9, exposure time: 3-4 hours | 0.22 | 0.96 | 118
concentration: 21.5 (µM), S9 metabolic activation: without S9, exposure time: 24 hours | 1.06 | 1.74 | 101
concentration: 26.8 (µM), S9 metabolic activation: with S9, exposure time: 3-4 hours | 0.16 | 1.02 | 84.1
concentration: 26.8 (µM), S9 metabolic activation: without S9, exposure time: 24 hours | 0.82 | 2.26 | 94.6
concentration: 33.6 (µM), S9 metabolic activation: with S9, exposure time: 3-4 hours | 0.28 | 1.28 | 83.5
concentration: 33.6 (µM), S9 metabolic activation: without S9, exposure time: 24 hours | 1.12 | 2.7 | 98.4
concentration: 41.9 (µM), S9 metabolic activation: with S9, exposure time: 3-4 hours | 0.34 | 1.18 | 87.7
concentration: 41.9 (µM), S9 metabolic activation: without S9, exposure time: 24 hours | 0.74 | 2.48 | 97.4
concentration: 52.4 (µM), S9 metabolic activation: with S9, exposure time: 3-4 hours | 0.28 | 1.04 | 83.7
concentration: 52.4 (µM), S9 metabolic activation: without S9, exposure time: 24 hours | 1.24 | 2.98 | 87.8
concentration: 65.5 (µM), S9 metabolic activation: with S9, exposure time: 3-4 hours | 0.22 | 1.28 | 85
concentration: 65.5 (µM), S9 metabolic activation: without S9, exposure time: 24 hours | 1.32 | 2.66 | 91.1
concentration: 81.9 (µM), S9 metabolic activation: with S9, exposure time: 3-4 hours | 0.24 | 1.96 | 102
concentration: 81.9 (µM), S9 metabolic activation: without S9, exposure time: 24 hours | 1.28 | 2.6 | 97.4
concentration: 102 (µM), S9 metabolic activation: with S9, exposure time: 3-4 hours | 0.24 | 1.34 | 92.6
concentration: 102 (µM), S9 metabolic activation: without S9, exposure time: 24 hours | 1.3 | 3.04 | 82.3
concentration: 128 (µM), S9 metabolic activation: with S9, exposure time: 3-4 hours | 0.24 | 1.56 | 97
concentration: 128 (µM), S9 metabolic activation: without S9, exposure time: 24 hours | 1.6 | 2.68 | 72.8
concentration: 160 (µM), S9 metabolic activation: with S9, exposure time: 3-4 hours | 0.34 | 1.56 | 102
concentration: 160 (µM), S9 metabolic activation: without S9, exposure time: 24 hours | 1.16 | 3.24 | 68
concentration: 200 (µM), S9 metabolic activation: with S9, exposure time: 3-4 hours | 0.18 | 1.42 | 106
concentration: 200 (µM), S9 metabolic activation: without S9, exposure time: 24 hours | 1.72 | 3.7 | 59.2

CCCOC(=O)c1ccc(O)cc1 [Propylparaben]
Conditions | hypodiploid nuclei frequency, [2] [%] | micronucleus frequency, [1] [%] | relative survival, [3]
concentration: 4.5 (µM), S9 metabolic activation: with S9, exposure time: 3-4 hours | 0.38 | 1.92 | 111
concentration: 4.5 (µM), S9 metabolic activation: without S9, exposure time: 24 hours | 0.5 | 2.02 | 138
concentration: 5.63 (µM), S9 metabolic activation: with S9, exposure time: 3-4 hours | 0.3 | 2.38 | 120
concentration: 5.63 (µM), S9 metabolic activation: without S9, exposure time: 24 hours | 0.42 | 1.94 | 128
concentration: 7.04 (µM), S9 metabolic activation: with S9, exposure time: 3-4 hours | 0.36 | 2.94 | 101
concentration: 7.04 (µM), S9 metabolic activation: without S9, exposure time: 24 hours | 0.52 | 1.96 | 120
concentration: 8.8 (µM), S9 metabolic activation: with S9, exposure time: 3-4 hours | 0.32 | 2.22 | 116
concentration: 8.8 (µM), S9 metabolic activation: without S9, exposure time: 24 hours | 0.52 | 2.06 | 123
concentration: 11 (µM), S9 metabolic activation: with S9, exposure time: 3-4 hours | 0.3 | 2.16 | 119
concentration: 11 (µM), S9 metabolic activation: without S9, exposure time: 24 hours | 0.68 | 2.02 | 114
concentration: 13.7 (µM), S9 metabolic activation: with S9, exposure time: 3-4 hours | 0.22 | 2.18 | 119
concentration: 13.7 (µM), S9 metabolic activation: without S9, exposure time: 24 hours | 0.38 | 1.88 | 109
concentration: 17.2 (µM), S9 metabolic activation: with S9, exposure time: 3-4 hours | 0.18 | 3.16 | 120
concentration: 17.2 (µM), S9 metabolic activation: without S9, exposure time: 24 hours | 0.4 | 1.68 | 105
concentration: 21.5 (µM), S9 metabolic activation: with S9, exposure time: 3-4 hours | 0.16 | 1.62 | 114
concentration: 21.5 (µM), S9 metabolic activation: without S9, exposure time: 24 hours | 0.56 | 2.86 | 95.5
concentration: 26.8 (µM), S9 metabolic activation: with S9, exposure time: 3-4 hours | 0.36 | 1.68 | 97.3
concentration: 26.8 (µM), S9 metabolic activation: without S9, exposure time: 24 hours | 0.62 | 1.32 | 88.2
concentration: 33.6 (µM), S9 metabolic activation: with S9, exposure time: 3-4 hours | 0.4 | 1.06 | 85.6
concentration: 33.6 (µM), S9 metabolic activation: without S9, exposure time: 24 hours | 0.74 | 1.36 | 118
concentration: 41.9 (µM), S9 metabolic activation: with S9, exposure time: 3-4 hours | 0.1 | 1.58 | 104
concentration: 41.9 (µM), S9 metabolic activation: without S9, exposure time: 24 hours | 0.66 | 1.56 | 96.4
concentration: 52.4 (µM), S9 metabolic activation: with S9, exposure time: 3-4 hours | 0.28 | 1.8 | 104
concentration: 52.4 (µM), S9 metabolic activation: without S9, exposure time: 24 hours | 0.44 | 1.92 | 79
concentration: 65.5 (µM), S9 metabolic activation: with S9, exposure time: 3-4 hours | 0.32 | 1.94 | 103
concentration: 65.5 (µM), S9 metabolic activation: without S9, exposure time: 24 hours | 0.58 | 1.52 | 80.3
concentration: 81.9 (µM), S9 metabolic activation: with S9, exposure time: 3-4 hours | 0.42 | 2.12 | 115
concentration: 81.9 (µM), S9 metabolic activation: without S9, exposure time: 24 hours | 0.68 | 1.56 | 76.6
concentration: 102 (µM), S9 metabolic activation: with S9, exposure time: 3-4 hours | 0.3 | 1.34 | 123
concentration: 102 (µM), S9 metabolic activation: without S9, exposure time: 24 hours | 0.86 | 1.84 | 92.3
concentration: 128 (µM), S9 metabolic activation: with S9, exposure time: 3-4 hours | 0.18 | 1.4 | 110
concentration: 128 (µM), S9 metabolic activation: without S9, exposure time: 24 hours | 0.82 | 1.86 | 83
concentration: 160 (µM), S9 metabolic activation: with S9, exposure time: 3-4 hours | 0.22 | 1.14 | 105
concentration: 160 (µM), S9 metabolic activation: without S9, exposure time: 24 hours | 0.98 | 1.74 | 67.4
concentration: 200 (µM), S9 metabolic activation: with S9, exposure time: 3-4 hours | 0.38 | 1.8 | 158
concentration: 200 (µM), S9 metabolic activation: without S9, exposure time: 24 hours | 1.04 | 2.76 | 66.1
